# Measured values from the RNAGym collection of RNA variant scans (doi:10.1093/nar/gkz1192).
# Read counts are not given, so values of variants with three or more changes are uncertain.
# B1: CPEB3 Ribozyme (parent)
# chain: UAACAGGGGGCCACAGCAGAAGCGUUCACGUCGCAGCCCCUGUCAGAUUCUGGUGAAUCUGCGAAUUCUGCUGUAUAUCUC
# Variants of: B1
# Test: self-cleavage, relative activity (ratio to wild type); higher = more cleavage; in vitro, sequencing
# Method in brief: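 Barcoded CPEB3 ribozyme mutants, produced by rounds of error-prone PCR, self-cleaved while being transcribed with T7 RNA polymerase for 5 hours at 37°C and during a subsequent 15 min DNase I step before EDTA was added. Sequencing of template-switched cDNA on Illumina gave cleaved and total reads, and DNA sequencing assigned barcodes to variants. Each variant's relative activity is its cleaved/total read fraction divided by the unmutated ribozyme's fraction, averaged across three batches. A variant needed a minimum of 5 reads.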
row,Variant,self-cleavage
1,UAACAGGGGGCCACAUCAGAAGCGUUCACGUGGCAGCCCCUGUCAGGUUCUGGUGAAUCUGCGAAUUCUGCUGUAUAUCUC [G16U C32G A47G],0.06
2,UAACAGGGGGCCACAUCAGAAGCGUUCACGUCGCAGCCGCUGUCAGAUUCUGGUGAAUCUGCGAAUCCUGCUGUAUAUCUC [G16U C39G U67C],0.08
3,UAACAGGGGGCCACAUCAGAAGCGUUCACGUCGCAGCCCAUGUCAGAUUCUGGUGAAUCUGCGAAUUCUGCUGUUUAUCUC [G16U C40A A75U],0.06
4,UAACAGGGGGCCACAUCAGAAGCGUUCACGUCGCAGCCCUUGUCAGAUUCUGGUGAAUCUGCGAGUUCUGCUGCAUAUCUC [G16U C40U A65G U74C],0.15
5,UAACAGGGGGCCACAUCAUAAGCGUUCACGUCGCAGCCCCUGUCAGAUUCCGGUGAAUCCGCGGAUUCUGCUGUAUAUCUC [G16U G19U U51C U60C A64G],0.13
6,UAACAGGGGGCCACAUCAGAACCGUUCACGUCGCAACCCCUGUCAGAUUCUGGUGAAUCUGCGGAUUCUGCUGUAUACCUC [G16U G22C G36A A64G U78C],0.16
7,UAACAGGGGGCCACAUCAGAAGCCUUCACGCCGCAGCCCCUGUCAGAUUCUGGUGUAUCUGCGAAUUCUGCUGUAUGUCUC [G16U G24C U31C A56U A77G],0.08
8,UAACAGGGGGCCACAUCAGAAGCUCUCACGACGCAGCCCCUGUCAGAUUCUGGUGAAUCUGCGAAUUCUUCUGUAUAUCUC [G16U G24U U25C U31A G70U],0.07
9,UAACAGGGGGCCACAUCAGAAGCGUUCACGUCGCACCCCCUGGCAGAUUCCGGGGAAUCUGCAAAUUCUGCUGUAUAUCUC [G16U G36C U43G U51C U54G G63A],0.06
10,UAACAGGGGGCCACAUCAGAAGCGUUCACGUCGCACCCCCUGGCAGAUUCCGGUGAAUCAGCGAAUUCUGCUGUAUAUCUC [G16U G36C U43G U51C U60A],0.08
11,UAACAGGGGGCCACAUCAGAAGCGUUCACGUCGCACCCCCUGGCAGAUUCCGGUGAAUCCGCGAAUUUUGCUGUAUAUCUC [G16U G36C U43G U51C U60C C68U],0.03
12,UAACAGGGGGCCACAUCAGAAGCGUUCACGUCGCAGCCCCUGUCAGAUUCUAGUGAAUCUGCGAAUACUGCUGUAUAUCUC [G16U G52A U67A],0.14
13,UAACAGGGGGCCACAUCAGAAGCGCUCACGCCGCAGCCCCUGUCAGAUUCUGGUGAAUCUGCGAAUUCUGCUGUAUAUCUC [G16U U25C U31C],0.08
14,UAACAGGGGGCCACAUCAGAAGCGCUCACGUCGCAGCCCCGGUCAGAUUCUGGUGAGUCUGCGAAUUCUGCUCUAUAUCUC [G16U U25C U41G A57G G73C],0.09
15,UAACAGGGGGCCACAUCAGAAGCGUACACGUCGCGGCCCCUGUCAGAUUCUGGUGAAACUGCAAAUUCUGCUGAAUAUCUC [G16U U26A A35G U58A G63A U74A],0.27
16,UAACAGGGGGCCACAUCAGAAGCGUACACGUCGCAGCCCCUGUCAGAUUCUGGUGAAUAUGCGGAUUCUGCUGAAUAUCUC [G16U U26A C59A A64G U74A],0.08
17,UAACAGGGGGCCACAUCAGAAGCGUACACGUCGCAGCCCCUGACAGAUUCUGGUGAAUCUGCGUGUUCUGCUGUAUAUCUC [G16U U26A U43A A64U A65G],0.05

row,Variant,self-cleavage
1,UAACAGGGGGCCACAUCAGAAGCGUCCACGUCGCUGCCCCUGUCAGAUUCAGGUGAAUCUGCGAAUUCUGCUGUAUAUCUC [G16U U26C A35U U51A],0.19
2,UAACAGGGGGCCACAUCAGAAGCGUCCACGCUGCGGCCCCUGUAAGAUUCUGGUGAAUCUGCGAAUUCUGCUGUAUGUCUC [G16U U26C U31C C32U A35G C44A A77G],0.14
3,UAACAGGGGGCCACAUCAGAAGCGUCCACGUCGCAGCCCCCGUCAGUUUCUGGUGAAUCUGCGAAUUCUGCUGUAUAUCGC [G16U U26C U41C A47U U80G],0.06
4,UAACAGGGGGCCACAUCAGAAGCGUUCACGCCGCAGCCCCCGUCGGAUUCUGGAGAAACUGCGAAUUCUGCCGUAUAUCUC [G16U U31C U41C A45G U54A U58A U72C],0.05
5,UAACAGGGGGCCACAUCAGAAGCGUUCACGUCGCAGCCCCAGUCAGGUUCUGGUGAACCUGCGAAUUCUGCUGUAUAUCCC [G16U U41A A47G U58C U80C],0.15
6,UAACAGGGGGCCACAUCAGAAGCGUUCACGUCGCAGCCCCAGUCAGAUUCUGGUGAAUCUGUGAAUUCUGCUGUAUAUCUC [G16U U41A C62U],0.1
7,UAACAGGGGGCCACAUCAGAAGCGUUCACGUCGCAGCCCCCGUCAGAUUCUGGCGAAUCUGCGAAUUCUGCUGUAUAUCUC [G16U U41C U54C],0.35
8,UAACAGGGGGCCACAUCAGAAGCGUUCACGUCGCAGCCCCCGUCAGAUUCUGGUGAAUCUGCGAAUUCUGCCGUAUAUCUC [G16U U41C U72C],0.51
9,UAACAGGGGGCCACAUCAGAAGCGUUCACGUCGCAGCCCCUGACGGAAACUGGUGAAUCUGCGAAUUCUGCUGUAUAUCUC [G16U U43A A45G U48A U49A],0.12
10,UAACAGGGGGCCACAUCAGAAGCGUUCACGUCGCAGCCCCUGACAGAUUCUGGUGAAUCUGCGAAUUCUGCCGUAUAUCUC [G16U U43A U72C],0.5
11,UAACAGGGGGCCACAUCAGAAGCGUUCACGUCGCAGCCCCUGGCAGAUUCCGGUGAAUCUGCGAAUUCUGCUGUAUAUCUC [G16U U43G U51C],0.16
12,UAACAGGGGGCCACAUCAGAAGCGUUCACGUCGCAGCCCCUGGCAGAUUCCGGUGAAUCUGCGAAUUCUGCCGUAUACCUC [G16U U43G U51C U72C U78C],0.18
13,UAACAGGGGGCCACAUCAGAAGCGUUCACGUCGCAGCCCCUGUCAGACUCUGGUGAAUUUGCGAAUUCUGCUGUAUAUCUC [G16U U48C C59U],0.22
14,UAACAGGGGGCCACAUCAGAAGCGUUCACGUCGCAGCCCCUGUCAGAUUCCGGUGAAUCUGCGUAUUCAGCUAUAUACCUC [G16U U51C A64U U69A G73A U78C],0.09
15,UAACAGGGGGCCACAUCAGAAGCGUUCACGUCGCAGCCCCUGUCAGAUUCUGGUGAAUCUGCGAACUCUGCUGGAUAUCUC [G16U U66C U74G],0.13
16,UAACAGGGGGCCACAUCAGAAGCGUUCACGUCGCAGCCCCUGUCAGAUUCUGGUGAAUCUGCGAAUUCUGCCGUAUGUCUC [G16U U72C A77G],0.67
17,UAACAGGGGGCCACAUCAGAAGCGUUCACGUCGCAGCCCCUGUCAGAUUCUGGUGAAUCUGCGAAUUCUGCCGUAUAUCUU [G16U U72C C81U],0.76
